Assay results taken from patent US8846351B2, “Compositions for enhancing hydroysis of cellulosic material by cellulolytic enzyme compositions” (Novozymes, Inc., priority 2010, dated 2014).

Target: Thermoascus aurantiacus GH61A polypeptide (Thermoascus aurantiacus, UniProt G3XAP7, N13Y)
Format: biochemical
Settings: for GH61 effect-day 1 (stand. dev.): ratio of conversion with GH61 to without GH61, organic compound present; for organic compound effect(+GH61) / GH61 effect: AVICEL, 1 mM organic compound
Description: Microcrystalline cellulose was used as the source of cellulosic material.
The concentration of each organic compound was 1 mM.

[1] = first GH61 effect column of Table 1
[2] = second GH61 effect column of Table 1
[3] = time not specified (FIG. 1: 3 and 7 days)

O=C(O)/C=C(\CC(=O)O)C(=O)O [trans-aconitic acid]
GH61 effect-day 1 (stand. dev.) [1]: 0.982
GH61 effect-day 1 (stand. dev.) [2]: 1.00

COC(=O)c1cc(O)c(O)c(O)c1 [methyl-3,4,5-trihydroxybenzoate]
organic compound effect(+GH61) (pH 5.0, 50° C., 7 days): 0.988±0.0157

COc1cccc(OC)c1O [2,6-dimethoxyphenol]
GH61 effect-day 1 (stand. dev.) [1]: 1.05
GH61 effect-day 1 (stand. dev.) [2]: 1.17

O=C(O)c1ccc(O)c(O)c1 [3,4-dihydroxybenzoic acid]
GH61 effect (pH 5.0, 50° C., 7 days): 1.06±0.0171
organic compound effect(+GH61) [3]: approximately 1

O=C1OC(C(O)CO)C(=O)C1=O (centres unmarked) [dehydroascorbate]
organic compound effect(+GH61) (pH 5.0, 50° C., 3 days): 1.14±0.0203
organic compound effect(+GH61) (pH 5.0, 50° C., 7 days): 1.23±0.0101

Oc1cccc(O)c1O [pyrogallol]
organic compound effect(+GH61) (pH 5.0, 50° C., 3 days): 1.05±0.0198
organic compound effect(+GH61) (pH 5.0, 50° C., 7 days): 0.933±0.00452
GH61 effect-day 1 (stand. dev.) [1]: 1.228

O=C1C[C@@H](c2ccc(O)cc2)Oc2cc(O)cc(O)c21 [naringenin]
GH61 effect-day 1 (stand. dev.) [1]: 1.01
GH61 effect-day 1 (stand. dev.) [2]: 1.

COC(=O)c1ccc(O)cc1 [methyl-4-hydroxybenzoate]
GH61 effect [3]: greater than 1
organic compound effect(+GH61) [3]: greater than 1

O=C(O)c1cc(O)cc(O)c1 [3,5-dihydroxybenzoic acid]
organic compound effect(+GH61) (pH 5.0, 50° C., 7 days): greater than 1
GH61 effect [3]: greater than 1
GH61 effect-day 1 (stand. dev.) [1]: 1.01
GH61 effect-day 1 (stand. dev.) [2]: 1.07

COc1cc(C(=O)O)ccc1O [4-hydroxy-3-methoxybenzoic acid]
GH61 effect-day 1 (stand. dev.) [1]: 1.00
GH61 effect-day 1 (stand. dev.) [2]: 1.00

COc1cc(C=CC(=O)O)ccc1O [4-hydroxy-3-methoxycinnamic acid]
organic compound effect(+GH61) (pH 5.0, 50° C., 3 days): below 1
GH61 effect (pH 5.0, 50° C., 7 days): greater than 1
organic compound effect(+GH61) (pH 5.0, 50° C., 7 days): approximately 1
GH61 effect-day 1 (stand. dev.) [1]: 0.960
GH61 effect-day 1 (stand. dev.) [2]: 1.03

Oc1ccccc1O [pyrocatechol]
organic compound effect(+GH61) (pH 5.0, 50° C., 3 days): 1.04±0.0177
organic compound effect(+GH61) (pH 5.0, 50° C., 7 days): 0.969±0.00741

O=C(O)C(O)C(O)C(=O)O (centres unmarked) [tartrate]
organic compound effect(+GH61) (pH 5.0, 50° C., 3 days): below 1
organic compound effect(+GH61) (pH 5.0, 50° C., 7 days): below 1
GH61 effect-day 1 (stand. dev.) [1]: 1.01

O=C(O)c1ccc(O)cc1 [4-hydroxybenzoic acid]
GH61 effect [3]: greater than 1
organic compound effect(+GH61) [3]: approximately 1
GH61 effect-day 1 (stand. dev.) [1]: 1.01
GH61 effect-day 1 (stand. dev.) [2]: 1.03

CC(C)(C)c1cc(C(=O)O)cc(C(C)(C)C)c1O [3,5-di-tert-butyl-4-hydroxybenzoic acid]
GH61 effect-day 1 (stand. dev.) [1]: 0.991
GH61 effect-day 1 (stand. dev.) [2]: 1.00

Where two headings read alike, the source gives them in different places.
